Screen size: about 350,000 compounds; about 31,000 (8.9%) were called active. Inconclusive means that the source gave no clear call. Such entries were picked first, then a sample of the others. Calls come from the whole dose curve; as a rule, active = well fitted inhibition curve with a large enough effect; inconclusive = small, poorly fitted or top-dose-only effect; inactive = no such curve, though single readings can be large or run the other way. Potencies of inconclusive entries are doubtful fits and often do not repeat.
molecular target: Histone-lysine N-methyltransferase EHMT2 (Homo sapiens) (UniProt Q96KQ7); assay: qHTS Assay for Inhibitors of Histone Lysine Methyltransferase G9a; conditions: G9a H3K9 monomethylation, AlphaScreen, 2 h; activity, negative = inhibition: at 59 µM (top of the series) unless noted; note: nearly all actives have a fitted effect of over 75% in size
Sequence of UniProt Q96KQ7 (Q96KQ7 whole entry, looked up): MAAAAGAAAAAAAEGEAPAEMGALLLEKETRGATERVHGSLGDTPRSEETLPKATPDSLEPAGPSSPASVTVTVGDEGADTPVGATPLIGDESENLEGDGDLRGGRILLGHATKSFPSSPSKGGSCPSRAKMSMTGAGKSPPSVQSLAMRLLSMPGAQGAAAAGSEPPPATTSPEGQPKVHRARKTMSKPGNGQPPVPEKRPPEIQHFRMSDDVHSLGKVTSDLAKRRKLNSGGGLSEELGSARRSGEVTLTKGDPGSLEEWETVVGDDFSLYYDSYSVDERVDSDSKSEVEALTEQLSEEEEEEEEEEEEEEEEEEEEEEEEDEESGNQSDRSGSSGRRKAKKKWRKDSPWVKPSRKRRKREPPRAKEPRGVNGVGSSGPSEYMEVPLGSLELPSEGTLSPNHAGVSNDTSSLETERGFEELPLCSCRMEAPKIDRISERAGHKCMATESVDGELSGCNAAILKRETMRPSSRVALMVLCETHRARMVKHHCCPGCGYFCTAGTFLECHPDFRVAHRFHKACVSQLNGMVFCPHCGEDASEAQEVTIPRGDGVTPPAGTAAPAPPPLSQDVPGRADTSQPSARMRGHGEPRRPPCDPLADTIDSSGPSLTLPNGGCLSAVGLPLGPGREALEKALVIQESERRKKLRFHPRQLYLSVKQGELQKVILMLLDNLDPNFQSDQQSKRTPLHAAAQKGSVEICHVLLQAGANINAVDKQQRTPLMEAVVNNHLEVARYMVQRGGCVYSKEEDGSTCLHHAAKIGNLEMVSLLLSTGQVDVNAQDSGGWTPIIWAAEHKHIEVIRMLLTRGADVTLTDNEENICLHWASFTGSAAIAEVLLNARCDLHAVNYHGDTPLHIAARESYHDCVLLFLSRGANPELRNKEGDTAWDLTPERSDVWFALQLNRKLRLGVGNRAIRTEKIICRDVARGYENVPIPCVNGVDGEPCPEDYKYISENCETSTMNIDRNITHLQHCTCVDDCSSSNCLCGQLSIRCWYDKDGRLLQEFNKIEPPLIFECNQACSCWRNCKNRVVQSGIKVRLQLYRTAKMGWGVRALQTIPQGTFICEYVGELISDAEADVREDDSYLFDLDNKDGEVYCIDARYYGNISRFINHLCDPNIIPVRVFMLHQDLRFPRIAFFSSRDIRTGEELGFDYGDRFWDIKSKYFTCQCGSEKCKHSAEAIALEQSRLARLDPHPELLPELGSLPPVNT
In short: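 Methyltransferase reactions run at room temperature for 2 h (20 nM enzyme, 500 nM biotin-H3K9 peptide, 20 uM SAM) after a 15 min compound preincubation; product detected by AlphaScreen beads and anti-H3K9me1 antibody.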
% is set by controls: 0 for no effect and ±100 for the full control effect; potency is the fitted concentration of half-maximal effect; tags give direction and shape of the fitted curve.

SMILES	Potency	activity, negative = inhibition
Cc1cc(Nc2ccc(F)cc2)nc(-n2nc(C)cc2C)n1	inactive	
COc1cccc(-c2sc3ccc(OC)cc3c2-c2ccc(C(N)=O)cc2)c1		inactive: 0.0635% [at 0.501 µM]
CC(C)c1ccc(NC(=O)COC(=O)/C=C/c2cccc([N+](=O)[O-])c2)cc1	inconclusive: 3.55 µM [inhibitor, single point]	
COc1ccccc1NC(=O)Nc1nc(CC(=O)Nc2ccccc2F)cs1	inconclusive: 79.4 µM [inhibitor, single point]	
CN1CCN(CCCNC(=O)C2CCN(c3nnc(-n4cccc4)s3)CC2)CC1	inconclusive: 89.1 µM [inhibitor, single point]	
Cn1ncc([N+](=O)[O-])c1C(=O)n1nnc2ccccc21	inconclusive: 39.8 µM [inhibitor, single point]	
Cc1ccc(S(=O)(=O)Nc2cccc(NC(=O)CN3CCCCC3)c2)cc1	inconclusive: 2.51 µM [inhibitor, full curve, poor fit]	
Clc1cc(Br)ccc1OCCn1ccnc1	active: 8.91 µM	
C=CCc1ccccc1OCC(O)CN1CCN(c2ccccc2F)CC1 (centres undefined)	inconclusive: 50.1 µM [inhibitor, partial curve, poor fit]	
CCc1cccc(C)c1NC(=O)CCn1nc(C)c2c(C)n(-c3ccccc3)nc2c1=O	inactive	
Cc1cccc(NC(=O)CCC(=O)c2cccs2)n1	inconclusive: 39.8 µM [inhibitor, full curve, poor fit]	
CCn1cnc2c([N+](=O)[O-])c(NS(=O)(=O)c3ccc(C)cc3)ccc21		inactive: 19.9% [at 2.33 µM]
CC1=C(C(=O)Nc2cccc(C(F)(F)F)c2)C(c2ccccc2)n2ncnc2N1 (centres undefined)	inactive	
Cc1[nH]c(=S)sc1Cc1ccc(Cl)c(Cl)c1	inconclusive: 28.2 µM [inhibitor, single point]	
O=C(CSc1nc2nn(-c3ccccc3)c(=O)c-2c2n1CCCCC2)NCCCc1ccccc1	inconclusive: 39.8 µM [inhibitor, partial curve, poor fit]	
CCc1ccc2nc(N3C(=O)C(O)=C(C(=O)c4ccco4)C3c3cccs3)sc2c1 (centres undefined)	inconclusive: 35.5 µM [inhibitor, single point]	
CC(=O)Nc1ccc(NS(=O)(=O)c2c(Cl)cccc2Cl)cc1		inconclusive: -56.4% [inhibitor]
Cc1nc2c(c(=O)n1CCC1=CCCCC1)c1nc3ccccc3nc1n2/N=C/c1ccco1	inconclusive: 50.1 µM [inhibitor, partial curve, poor fit]	
Cc1ccc(C)c(N2CCN(c3nc4c(S(=O)(=O)c5ccccc5)nnn4c4ccc(Cl)cc34)CC2)c1	inactive	
Cc1cccc(N2CCN(C(=O)c3cccc(N4C(=O)C5C6C=CC(C6)C5C4=O)c3)CC2)c1C (centres undefined)	inactive	
COc1ccc(N2CCN(c3cc(C)nc4nncn34)CC2)cc1	inconclusive: 28.2 µM [inhibitor, partial curve, poor fit]	
Cc1ccc(S(=O)(=O)N(CC(=O)c2ccc(Cl)cc2)C(=O)N2CCN(C)CC2)cc1	inconclusive: 56.2 µM [inhibitor, partial curve, poor fit]	
CC(=O)c1cc(-c2ccccc2)[nH]c1N1CCCC1	inconclusive: 31.6 µM [inhibitor, single point]	

SMILES	Potency	activity, negative = inhibition
O=C(NC(=S)N(CCO)Cc1ccccc1)c1cc(Br)ccc1Cl	inconclusive: 70.8 µM [inhibitor, partial curve]	
Cc1nc2cc(-c3cccc(F)c3)nn2c(C)c1CCC(=O)NC(C)CCc1ccco1 (centres undefined)	inconclusive: 79.4 µM [inhibitor, single point]	
Brc1ccc(-c2cnc(-c3cccs3)o2)cc1	inconclusive: 44.7 µM [inhibitor, partial curve]	
O=c1[nH][nH]c(-c2ccccc2O)c1C(C[N+](=O)[O-])c1ccccc1 (centres undefined)	inconclusive: 20 µM [inhibitor, single point]	
c1ccc2cc(OCCN3CCCC3)ccc2c1	active: 12.6 µM	
O=S(=O)(c1cccs1)N1CCN(CC(O)COc2cc(Cl)ccc2Cl)CC1 (centres undefined)	inconclusive: 25.1 µM [inhibitor, single point]	
CCOC(=O)C1=C(COC(=O)c2cccc(N(C)C)c2)NC(=O)NC1C (centres undefined)	inconclusive: 50.1 µM [inhibitor, partial curve, poor fit]	
CCOc1ccc(CNc2ccc(N3CCOCC3)c(C(=O)O)c2)cc1	inconclusive: 10 µM [inhibitor, partial curve, poor fit]	
O=C(CCn1c(=S)[nH]c2ccccc2c1=O)NCCCN1CCCC1=O	inconclusive: 25.1 µM [inhibitor, single point]	
CCOc1cccc(-c2nnc3sc(-c4ccco4)nn23)c1	active: 7.94 µM	
CCCc1cc(=O)[nH]c(SCC(=O)NC2(C#N)CCCCC2)n1	inactive	
Cc1cccc(Nc2ccccc2)c1		inactive: -9.29% [at 12.7 µM]
CC1CCN(C(=O)c2[nH]cnc2C(=O)NCC(=O)OCc2ccccc2)CC1	inconclusive: 79.4 µM [inhibitor, single point]	
CCOc1cc(CNC(=O)c2ccc3nc(CCc4ccccc4)oc3c2)ccc1OC	inactive	
O=C(CN1C(=O)COc2ccccc21)NNC(=O)Nc1ccccc1F	inactive	
Cc1cccn2c(=O)c3cc(S(=O)(=O)c4ccccc4)c(=N)n(Cc4ccco4)c3nc12	inactive	
O=C(CSc1nc2ccsc2c(=O)n1Cc1ccccc1Cl)NCc1ccc(Cl)cc1	inactive	
CCCCCCCCCOC(=O)C(CC(=O)O)N1CCOCC1 (centres undefined)	inconclusive: 39.8 µM [inhibitor, single point]	
COc1ccc(S(=O)(=O)Nc2c(C(=O)O)[nH]c3ccccc23)cc1OC	active: 12.6 µM	
COc1cccc(C2=CC(c3ccccc3F)n3c(nc4ccccc43)N2)c1 (centres undefined)	inconclusive: 31.6 µM [inhibitor, single point]	
NC(=O)[C@H]1O[C@@H](O)[C@H](O)[C@@H](O)[C@@H]1O	inconclusive: 3.98 µM [inhibitor, single point]	
CN(Cc1ccccc1)C(=O)c1[nH]cnc1C(=O)NCc1ccccc1		inactive: 2.37% [at 0.501 µM]
Cn1cccc1C(C#N)c1cccc(F)c1C#N (centres undefined)	inconclusive: 89.1 µM [inhibitor, single point]	

SMILES	Potency	activity, negative = inhibition
CCOC(=O)c1c[nH]n(-c2ccc(C)cc2)c1=O	active: 50.1 µM	
COc1ccccc1C(CNC(=O)c1ccc(S(=O)(=O)N2CCCCC2)cc1)N(C)C (centres undefined)		inactive: -7.18% [at 2.33 µM]
CC1CCN(S(=O)(=O)c2ccc(C(=O)N3CCOCC3)cc2)CC1	inactive	
O=C(c1ccc2c(Cl)c3c(nc2c1)CCCC3)N1CCN(c2ccccc2F)CC1	inconclusive: 20 µM [inhibitor, partial curve, poor fit]	
COc1ccc2c(c1)c(C(=O)O)c(C)n2CCc1ccc(OC)c(OC)c1	inconclusive: 89.1 µM [inhibitor, single point]	
CC(C)n1c(CSCc2ccc(Cl)cc2Cl)n[nH]c1=S	active: 12.6 µM	
Cc1cc(/C=C(\C#N)C(=O)NCc2ccco2)c(C)[nH]1	inconclusive: 14.1 µM [inhibitor, partial curve, poor fit]	
CCOC(=O)c1c(C)c(C(=O)NCc2ccccn2)c(C)n1C	inconclusive: 100 µM [inhibitor, partial curve, poor fit]	
CC1CCN(C(=S)c2ccc([N+](=O)[O-])cc2)CC1	active: 7.94 µM	
c1ccc(-c2ccc3c(c2)NCCN3)cc1	inconclusive: 2 µM [inhibitor, partial curve, poor fit]	
CC(=O)NC(CCS(C)(=O)=O)C(=O)Nc1cc(C)ccc1C (centres undefined)	inconclusive: 28.2 µM [inhibitor, partial curve, poor fit]	
O=C(Nc1ccc(F)cc1F)c1cc2nc(-c3ccco3)cc(C(F)(F)Cl)n2n1	inactive	
c1ccc(-c2csc(Nc3cccnc3)n2)nc1	inconclusive: 0.794 µM [inhibitor, partial curve, poor fit]	
O=C1c2ccccc2NC(c2ccco2)N1/N=C/c1ccco1 (centres undefined)	inconclusive: 56.2 µM [inhibitor, single point]	
O=C(Nc1nccs1)c1ccc(COc2ccc(F)cc2)o1		inactive: 5.8% [at 12.7 µM]
Cc1ccc(-n2c(O)c(C=Nc3cc(C)on3)c3ccccc3c2=O)c(C)c1	inconclusive: 11.2 µM [inhibitor, partial curve, poor fit]	
c1ccc2c(c1)CCCN2Cc1nnc2n1CCCCC2	inconclusive: 31.6 µM [inhibitor, single point]	
O=C(Oc1coc(CSc2ncccn2)cc1=O)c1ccccc1[N+](=O)[O-]	inconclusive: 89.1 µM [inhibitor, single point]	
CCN(C(=O)Cn1nnc2sc(-c3ccccc3)cc2c1=O)c1cccc(C)c1	active: 4.47 µM	
CC(C)CCn1c(SCCc2ccccc2)nc2c1c(=O)[nH]c(=O)n2C		inconclusive: -110% [inhibitor]
CCNC(=O)/C(C#N)=C/c1c(N2CCN(c3ccc(OC)cc3)CC2)nc2c(C)cccn2c1=O	active: 39.8 µM	
COc1ccc(NC(=O)CCn2c(=O)c3cccn3c3ccccc32)c(OC)c1	inconclusive: 28.2 µM [inhibitor, partial curve, poor fit]	
Cc1cccc(CNc2ncncc2-c2ccccc2Cl)c1		inactive: -40% [at 0.501 µM]

Source: PubChem BioAssay AID504332 (National Center for Advancing Translational Sciences (NCATS), 2011)
